Source: PubChem BioAssay AID624417 (National Center for Advancing Translational Sciences (NCATS), 2012)
The whole screen tested about 410,000 compounds, of which about 6,400 (1.6%) were called active. The inconclusive results got no clear call from the source; some entries with a clear call stand among them for comparison. The call rests on the fitted dose curve; in most records, active means well fitted inhibition curve with a large enough effect; inconclusive means small, poorly fitted or top-dose-only effect; inactive means no such curve, though single readings can be large or run the other way. Where the call is inconclusive, the potency comes from a doubtful curve fit.

What follows are molecules tested against Glucagon-like peptide 1 receptor (Homo sapiens) (UniProt P43220) (assay: qHTS of GLP-1 Receptor Inverse Agonists (Inhibition Mode)). Conditions: HEK293 GLP-1R CRE-luciferase, luminescence, 24 h, GLP-1R form is constitutively active; series mostly up to 38.3 µM.
In short: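 Assay principle: reduced luminescence from a cAMP-responsive reporter in HEK293 cells co-expressing a constitutively active GLP-1R. Conditions: 24 hr compound incubation, 37 deg C, 5% CO2.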
Further: nearly all actives have a fitted effect of over 55% in size.
Potency means the concentration at half of the fitted maximal effect; tags describe the fitted curve by direction and shape.

UniProt P43220, sequence (P43220 whole entry, looked up): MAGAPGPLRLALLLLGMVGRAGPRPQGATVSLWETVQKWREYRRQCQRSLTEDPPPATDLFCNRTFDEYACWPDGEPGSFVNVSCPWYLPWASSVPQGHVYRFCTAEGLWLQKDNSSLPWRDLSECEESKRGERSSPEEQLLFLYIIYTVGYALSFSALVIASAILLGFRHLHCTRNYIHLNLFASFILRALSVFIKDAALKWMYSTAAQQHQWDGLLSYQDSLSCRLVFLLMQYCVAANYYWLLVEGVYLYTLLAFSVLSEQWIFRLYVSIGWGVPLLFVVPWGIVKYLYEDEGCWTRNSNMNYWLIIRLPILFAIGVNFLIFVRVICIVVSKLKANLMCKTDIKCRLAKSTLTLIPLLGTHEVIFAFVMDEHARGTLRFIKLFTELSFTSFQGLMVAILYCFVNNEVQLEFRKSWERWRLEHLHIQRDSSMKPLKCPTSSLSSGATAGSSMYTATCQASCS

Potency, inactive:
C/C(=N\NC(=O)c1nc2ccccn2c1C)c1cc2ccccc2o1, Cc1ccc(S(=O)(=O)c2cnc(SCC(=O)Nc3ccc4c(c3)OCCO4)[nH]c2=O)cc1Cl

Potency, active:
Cc1ccccc1NC(=O)c1cn(-c2ccccc2)nc1-c1ccccc1 10 µM

Potency, inconclusive:
COc1cc(C(=S)N2CCOCC2)ccc1OS(=O)(=O)c1ccc(NC(C)=O)cc1 11.2 µM [inhibitor, single point], O=c1[nH][nH]c2c1[C@@H](c1ccc(F)cc1)O[C@H](CCc1ccccc1)C2 28.2 µM [inhibitor, single point], Cc1cc(OCC(O)CN2CCN(CCO)CC2)ccc1C(C)C (stereo unspecified) 2 µM [inhibitor, partial curve, poor fit], O=C(NCCCNc1ccc(C(F)(F)F)cc1[N+](=O)[O-])c1cc(F)c(F)cc1Cl 3.98 µM [inhibitor, partial curve, poor fit], CCc1ccc(C(=O)CCC(=O)Nc2cccc(S(=O)(=O)N3CCCCC3)c2)cc1 0.316 µM [inhibitor, full curve, poor fit], Cc1cccc(COCC(CC(C)C)N2CCN(C(=O)c3ccc(C(C)(C)C)cc3)CCC2=O)c1 (stereo unspecified) 11.2 µM [inhibitor, partial curve, poor fit], O=C(CC(c1ccccc1)C1CCCCC1=O)c1ccccc1 (stereo unspecified) 10 µM [inhibitor, partial curve, poor fit], COc1cccc(Nc2nc(C(N)Cc3ccc(Cl)cc3)cs2)n1 (stereo unspecified) 28.2 µM [inhibitor, partial curve, poor fit], O=C(/C=C/c1ccc(NC(=O)c2ccccc2-c2ccccc2C(=O)O)cc1)c1ccccc1 8.91 µM [inhibitor, partial curve], CN(C(=O)/C=C/c1cnc2ccccc2c1)C1CCCCC1 28.2 µM [inhibitor, single point], CCCn1c2ccccc2c2cnn(CC(=O)NCCCN3CCCCC3)c(=O)c21 14.1 µM [inhibitor, single point], COc1ccc(N2c3ccccc3CN(Cc3ccccc3)[C@@H](C)[C@H]2Cc2cccnc2)cc1 6.31 µM [inhibitor, partial curve, poor fit], Cc1onc(-c2ccccc2Cl)c1C(=O)N1CCN(c2nc3ccccc3s2)CC1 10 µM [inhibitor, partial curve, poor fit]
